Data as given in PubChem BioAssay AID1508623 (National Center for Advancing Translational Sciences (NCATS), 2021).
Out of some 48,000 compounds screened, about 450 (0.94%) were called active. Not shown: some 19% with an inconclusive outcome. Calls follow the shape of the dose curve; as a rule, active = well fitted inhibition curve with a large enough effect; inconclusive = small, poorly fitted or top-dose-only effect; inactive = no such curve, though single readings can be large or run the other way. The list shows a part of the results.

Test: Primary qHTS for Identification of Small Molecule Inhibitors of Huntingtin Promoter Activity; also: nearly all actives have a fitted effect of over 50% in size
Conditions: HEK293 HTT promoter firefly luciferase reporter (activity 0% = vehicle and -100% = no light), 24 h; series mostly up to 57.5 µM; activity change, negative = inhibition: at the top concentration
Method in brief: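 HEK293 cells carrying firefly luciferase reporters were seeded at 2,500 per well in Opti-MEM and cultured for 24 h. They were then treated with compounds at up to 57.5 uM final for 24 h at 37 degrees C before Dual-Glo luminescence readout.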

Activity change, negative = inhibition, inactive:
CCOC(=O)c1ccc(NC(=O)Cn2cnc(S(=O)(=O)N3CCCC3)c2)cc1 -17.5%
CCOc1ccc(OCC)c(NC(=O)CCc2c(C)nc3c(c2C)c(=O)n(C)c(=O)n3C)c1 -4.74%
CCSc1ncc(Cl)c(C(=O)Nc2c(C(=O)Nc3ccc(Cl)cc3)oc3ccccc23)n1 5.99%
O=C(c1ccc2c(c1)N(Cc1ccccc1)C(=O)c1ccccc1S2(=O)=O)N1CCN(c2ccccn2)CC1 -13.8%
CCOc1ccccc1CNC(=O)c1cc(-c2ccc(OC)cc2)nc2ccc(C(C)C)cc12 -7.11%
COc1cc(C2c3c(oc4ccccc4c3=O)C(=O)N2c2nnc(C(C)C)s2)cc(OC)c1OC (stereo not drawn) -12.5%
COc1ccc(CNC(=O)c2ccc3c(c2)nc2n3CCCCC2)c(OC)c1 52.1%
CCOC(=O)c1cccc(NS(=O)(=O)c2cn(C)c(C)n2)c1 -0.844%
COc1ccc(/C=C/c2noc(-c3ccccc3O)n2)cc1OC 1.39%
Cc1ccc(Cn2ccn(Cc3ccccc3C)c(=O)c2=O)cc1 -25.9%
COC(=O)c1ccccc1NC(=O)Cn1c(=O)n(-c2ccc(Cl)cc2)c(=O)c2c(C)c(C)sc21 -3.47%
COc1cccc(-c2cc(C(=O)Nc3ccc(C)cc3)[nH]n2)c1 53.8%
COc1ccc(C(=O)N2CCc3cc(OC)c(OC)cc3C2COc2ccc3c(C)cc(=O)oc3c2)c(OC)c1 (stereo not drawn) -12.1%
Cc1cc(C)n(-c2nc3ccccc3nc2Nc2cc(C(=O)O)ccc2C)n1 -4.76%
Cc1ccc(CN2CCN(CC(=O)NCc3ccccc3Cl)C2=O)cc1 -5.31%
Cc1cc(C)cc(-n2nnc(-c3nc(-c4ccccc4F)no3)c2C)c1 7.23%
CCOc1ccccc1NC(=O)CN1C(=O)C2(SCC(=O)N2c2cccc(F)c2)c2ccccc21 (stereo not drawn) -17.2%
Cc1c(Cl)cccc1NC(=O)CCn1nc(C)c2c(C)n(-c3ccccc3)nc2c1=O -7.54%
COc1ccc(S(=O)(=O)N(CC(=O)NCc2ccc(C)cc2)c2ccc(Cl)cc2)cc1 -21.2%
COc1ccc(NC(=O)c2sc3nc(C)c(C(=O)Nc4ccc(Cl)cc4)c(-c4ccc(Br)cc4)c3c2N)cc1 -24%
CCOc1ccc(C(=O)N2CCCCC2CCN2CCOCC2)cc1 (stereo not drawn) -5.4%
COC(=O)C(CCSC)NC(=O)c1c(C)oc2ncn(CC(C)C)c(=O)c12 (stereo not drawn) 2.94%
Cc1ccc(NC(=O)C(=O)NCC(c2cccnc2)N2CCN(C)CC2)cc1F (stereo not drawn) -14.2%
Cc1c(Cl)cccc1NC(=O)CSc1ncccc1C(=O)Oc1ccccc1Cl 1.57%
CCOc1ccc(NC(=O)Cn2ccn(-c3ccc(F)c(F)c3)c(=O)c2=O)cc1 -7.18%
COc1ccc(CNC(=O)c2cccc(-n3cnc4cccnc43)c2C)cc1 -17.5%
COc1cccc(C(=O)Nc2ccc(-c3cn4cccnc4n3)cc2)c1OC 10.3%
COc1cc2ccccc2cc1C(=O)Nc1ccc(Cl)c(-c2nc3ccccc3o2)c1 -26.8% [at 11.5 µM]
CCn1ccc2cc(S(=O)(=O)N3CCC(C(=O)NCCc4ccc(C)cc4)CC3)ccc21 -4.11%
COc1ccc(NC(=O)CSCc2cnn(-c3ccccc3)c2-n2cccc2)cc1 -22.3%
CCC(C)NC(=O)c1ccc2nc(Cc3ccc(OC)cc3)oc2c1 (stereo not drawn) -20.7%
COc1cc(C(=O)N2CCN(CCc3ccccn3)CC2)cc(OC)c1OC -15.6% [at 11.5 µM]
Cc1ccc(N(CC(=O)Nc2cc(C)cc(C)c2)S(=O)(=O)c2cccc3nonc23)cc1 -4.77%
NS(=O)(=O)c1ccc(NC(=O)c2ccc3c(c2)CCN3S(=O)(=O)c2ccccc2)cc1 -22.9%
CC(CC(=O)Nc1ccc(Br)cc1F)S(=O)(=O)c1ccc2c(c1)NC(=O)CO2 (stereo not drawn) -2.82%
CC(C)c1ccc(C2N=C(N)Nc3nc4ccccc4n32)cc1 (stereo not drawn) -15.8%
Cc1c(Cl)cccc1NC(=O)C(C)n1nnc2sc3c(c2c1=O)CCCC3 (stereo not drawn) 5.62%
Cc1c(C)n(C)c2ccc(C(=O)N3CCN(c4ccccc4)CC3)cc12 -4.32%
Cc1cc(C)cc(NC(=O)Cn2c(=O)c3ccccc3n3nncc23)c1 -11.1%
CCOC(=O)c1ccccc1NC(=O)c1sc2nc3n(c(=O)c2c1C)CCCC3 4.36%
CCc1ccc(CNC(=O)CN2C(=O)c3cccnc3Oc3ccc(C)cc32)cc1 4.19%
Cc1ccc2c(=O)cc(C(=O)Nc3ccc(S(=O)(=O)N4CCCCCC4)cc3)oc2c1C 13.1%
CCOC(=O)C1CCN(C(=O)C2CCN(C3=NS(=O)(=O)C(c4ccc(C)c(C)c4)=C3C)CC2)CC1 -26.7%
Cc1cccc(C2CC(=O)Oc3c2c(=O)n(C)c2ccccc32)c1 (stereo not drawn) -15.7%
CC(C)CCNC(=O)C1CCC(Cn2c(=O)c3sccc3n(CC(=O)NC(C)C)c2=O)CC1 (stereo not drawn) -8.31%
Cc1ccc(-n2c(=O)c3oc4ccccc4c3n(Cc3ccccc3F)c2=O)cc1C -6.45%
O=C(Cn1c(=O)n(-c2ccc(F)c(Cl)c2)c(=O)c2sc3ccccc3c21)NC1CCCC1 -15.2%
COc1ccc(CNC(=O)c2cc3c(s2)-c2ccccc2OC3)cc1 -14.6%
CCC(C)NC(=O)C(=O)Nc1c2c(nn1-c1ccccc1)CS(=O)(=O)C2 (stereo not drawn) -16.8%
COc1ccc(NC(=O)CSc2nc3c(oc4ccccc43)c(=O)n2-c2ccc(C)c(C)c2)cc1 -18.4%
CCOC(=O)c1c(NC(C)=O)c2c3c(sc2n1Cc1nc(-c2ccccc2C)oc1C)CCCC3 17.9%
O=C(c1ccc2c(c1)N(Cc1ccc(Cl)cc1)C(=O)c1ccccc1S2(=O)=O)N1CCCCC1 -27.6%
CC1CN(C(=O)CCC(=O)NCc2ccc(F)cc2)c2cc(Cl)ccc2O1 (stereo not drawn) -10.1%
O=C(CN1C(=O)CCSc2ccccc21)Nc1ccccc1F -14%
CCOc1ccc(CCNC(=O)C2COc3ccccc3C2)cc1OCC (stereo not drawn) -15.4%
Cc1ccc(S(=O)(=O)c2nc(-c3cccc(C)c3)oc2N2CCN(c3ccccc3)CC2)cc1 -23.1%
COC(=O)c1sc2cccc(F)c2c1S(=O)(=O)N1CCN(c2ccc(F)cc2)CC1 -6.4%
CCCSc1ncc(Cl)c(C(=O)Nc2nc3ccc(OCC)cc3s2)n1 -0.778%
Cc1ccc(CNC(=O)c2ccc3c(=O)n(-c4ccccc4)c(=O)[nH]c3c2)cc1 -16.7%
COc1cc(OC)c(NC(=O)NCc2ccc3c(c2)CCN3C(=O)c2ccccc2)cc1Cl -20.3%
CCc1ccccc1NC(=O)CSc1nc(-c2ccccc2OC)nc2c1Cc1c(CO)cnc(C)c1O2 -17.9%
CC(=O)c1cc(C(=O)Nc2cc(C)cc(C)c2)c2ccccn12 19.7%
COC(=O)C(CCSC)NC(=O)c1cc2c(n(-c3ccc(C)cc3)c1=O)CC(C)(C)CC2=O (stereo not drawn) -17.2%
Cc1ccc2c(c1)cc1c(=O)n(CC(=O)NC3CCCCC3)nc(C)n12 -2.03%
CCOC(=O)CC1c2cc(OCC)c(OCC)cc2CCN1C(=O)Nc1cccc(Cl)c1 (stereo not drawn) -20.9%
Cc1cccn2c(=O)c3cc(C(=O)NCc4ccccc4)c(=N)n(CCOCCO)c3nc12 -2.37%
NC(=O)C1(N2CCCCC2)CCN(CCCC(=O)c2ccc(F)cc2)CC1 3.89%
O=C(NCc1ccccc1)c1ccc2c(c1)CCN2S(=O)(=O)c1ccccc1 -35.4%
CCC(=O)Nc1ccc(-c2nnc3c4ccccc4c(C)nn23)cc1 -1.32%
Cc1ccc(NC(=O)CSc2nc(=O)n(CCCN(C)C)c3c2CCC3)cc1F -7.37%
CCCc1ccc(S(=O)(=O)N2CCC(Oc3ccc(-n4cnnn4)cc3)CC2)cc1 -33.4%
CNC1(C)C2CCC(C2)C1(C)C (stereo not drawn) -6.81%
CNC(=O)c1ccc(Nc2nnc(-c3ccc(C)c(S(=O)(=O)N(C)C)c3)c3ccccc23)cc1 -18.8%
CCOC(=O)c1[nH]c(C)c(CCC(=O)NCc2ccccc2Cl)c1C -18.7%
COc1ccc(CCNC(=O)CCCn2c(=O)c3ccccc3n(Cc3c(C)cc(C)cc3C)c2=O)cc1OC 2.13%
CCC(=O)N1c2ccc(S(=O)(=O)N3CCC(C)CC3)cc2CC1C (stereo not drawn) -30.6%
Cc1ccc(C)c(NC(=O)Cn2cc(C(=O)c3ccc(Cl)cc3)c(=O)c3ccc(C)nc32)c1 -8.48%
O=C(CC1C(=O)OCCN1Cc1ccccc1)Nc1ccc(F)cc1 (stereo not drawn) -21.7% [at 11.5 µM]
CC1CCN(S(=O)(=O)c2ccc(C(=O)Nc3sc4c(c3C(N)=O)CC(C)(C)NC4(C)C)cc2)CC1 -16.3%
Cc1cccc(C)c1-n1ncc(C(=O)N2CCN(c3ccccn3)CC2)c1C1CCN(C(=O)OC(C)(C)C)CC1 -31.1%
N#Cc1ccc(CSc2nc3c(c(=O)[nH]2)CCC3)cc1 -10%
Cc1cccc(-c2nc3c4ccccc4nc(NCc4ccc(Cl)cc4)n3n2)c1 7.26%
Cc1c(Cn2c(C)nc3c(C(=O)O)cc(N4CCOCC4)cc32)cccc1C(F)(F)F -14.2%
COc1ccc(-c2cc(C(=O)NCc3ccc(F)cc3)c3c(-c4ccc(F)cc4)[nH]nc3n2)cc1OC -29.6%
CCc1ccc2oc(-c3cc(NC(=O)C(C)C)cc(C)c3O)nc2c1 -5.61%
CC(C)Cn1c(=O)c2sccc2n2c(CCCC(=O)NCc3ccccc3Cl)nnc12 -12.9%
COc1cccc(CNC(=O)C2CCN(S(=O)(=O)c3cn(C)cn3)CC2)c1 -15.5%
CC(=O)N1c2ccc(S(=O)(=O)N3CCCCCC3)cc2CC1C(=O)NCc1ccc(Cl)cc1 (stereo not drawn) -17.5%
O=C(Cn1cc(SCc2ccc(C(F)(F)F)cc2)c2ccccc21)N1CCCC1 -14.9%
CCCOc1ccc(-c2nonc2NC(=O)c2oc3ccc(C)cc3c2C)cc1OCCC -13.2%
CCOC(=O)N1CCC(NC(=O)c2cnn(-c3cccc(Cl)c3C)c2C2CCN(C(=O)OC(C)(C)C)CC2)CC1 6.95%
CN1CCN(c2nc3c(S(=O)(=O)c4ccc(Br)cc4)nnn3c3ccsc23)CC1 4.92%
Oc1ccc(Cl)cc1C1=Nc2ccccc2N=C(c2cccc(Br)c2)C1 0.0657%
